Experimental data taken from patent publication US20130039912A1 (Sanofi, published 2013).

Tests used:
Slit2-N = biological target: T1, Slit2-N (human, UniProt O94813 31-1121); test: FACS on HEK293 cells transiently expressing Slit2-N
T1 construct: In the FACS assay expressed by transient transfection of pXL5033 in HEK293 cells
T1 sequence: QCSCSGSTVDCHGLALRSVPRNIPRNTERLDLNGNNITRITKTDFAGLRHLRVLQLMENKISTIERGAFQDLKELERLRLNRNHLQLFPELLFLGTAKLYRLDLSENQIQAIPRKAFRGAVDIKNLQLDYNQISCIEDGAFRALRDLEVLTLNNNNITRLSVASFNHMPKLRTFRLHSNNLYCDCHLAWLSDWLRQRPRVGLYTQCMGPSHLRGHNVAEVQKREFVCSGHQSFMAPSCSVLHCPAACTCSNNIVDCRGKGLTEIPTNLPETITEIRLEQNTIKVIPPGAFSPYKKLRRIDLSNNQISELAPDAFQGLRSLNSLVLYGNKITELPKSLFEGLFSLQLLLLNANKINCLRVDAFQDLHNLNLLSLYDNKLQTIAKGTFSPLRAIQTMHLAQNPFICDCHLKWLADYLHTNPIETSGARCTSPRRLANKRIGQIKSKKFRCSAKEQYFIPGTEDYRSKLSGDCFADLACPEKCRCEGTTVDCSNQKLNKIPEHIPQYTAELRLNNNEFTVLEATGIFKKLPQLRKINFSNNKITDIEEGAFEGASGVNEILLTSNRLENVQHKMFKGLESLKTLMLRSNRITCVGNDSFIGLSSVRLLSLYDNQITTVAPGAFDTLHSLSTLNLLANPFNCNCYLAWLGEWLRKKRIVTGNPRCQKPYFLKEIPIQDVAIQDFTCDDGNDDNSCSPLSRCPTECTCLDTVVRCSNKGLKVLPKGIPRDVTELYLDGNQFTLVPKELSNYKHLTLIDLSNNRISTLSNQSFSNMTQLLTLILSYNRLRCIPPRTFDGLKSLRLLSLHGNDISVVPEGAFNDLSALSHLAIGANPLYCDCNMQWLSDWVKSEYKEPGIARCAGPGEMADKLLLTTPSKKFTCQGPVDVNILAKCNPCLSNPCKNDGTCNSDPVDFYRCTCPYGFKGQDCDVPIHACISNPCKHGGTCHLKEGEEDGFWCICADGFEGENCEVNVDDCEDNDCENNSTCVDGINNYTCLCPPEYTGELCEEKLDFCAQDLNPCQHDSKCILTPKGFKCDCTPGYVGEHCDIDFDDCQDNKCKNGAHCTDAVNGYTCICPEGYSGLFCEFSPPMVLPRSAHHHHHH
Procedure: The HEK293 cells described and used as in example 1 were transfected either with a ballast plasmid, having no cDNA that encodes in the mammalian cell, or the pXL4911 plasmid encoding the Slit2-D2 protein, or the pXL4912 plasmid encoding the Slit2-D1D2 protein, or pXL5033 encoding the Slit2-N protein described in example 2, The cells were distributed into 96-well plates 48 hours post-transfection, and the Robo1-Fc protein was added in a concentration range of from 0.01 to 3 mg/L for 30 min at 4° C. The Robo1-Fc protein is either the Robo1-Fc L1 biotherapeutic agent, or the Robo1-Fc Slit2-minus mutant, or the Robo1-Fc heparin-minus mutant. The cells were washed and the anti-human Fc antibody labelled with Alexa 488 (ref: A-11013, Invitrogen) was incubated for 30 min at 4° C. The labelled HEK293 cells are then quantified by FACS (Geomean).

Slit1-D2 = biological target: T2, Slit1-D2 (human); test: ELISA, Slit1-D2 coated, Robo1-Fc titrated, anti-human IgG-HRP
T2 chain: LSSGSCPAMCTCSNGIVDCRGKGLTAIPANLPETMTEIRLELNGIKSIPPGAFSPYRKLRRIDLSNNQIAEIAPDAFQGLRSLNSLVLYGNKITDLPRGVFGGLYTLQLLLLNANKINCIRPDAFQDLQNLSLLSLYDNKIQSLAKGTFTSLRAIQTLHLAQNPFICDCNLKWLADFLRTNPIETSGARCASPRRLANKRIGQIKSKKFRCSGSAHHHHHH
Procedure: The D2 domain of the human Slit variants was bound to Immulon-4 enzyme-linked plates (VWR Scientific Inc. Swedesboro, N.J.). A concentration range (from 1 μg/mL to 0.001 μg/mL) of the Robo1-Fc L1 fusion protein was added and than detected using the peroxidase-conjugated goat anti-human IgG antibody (Sigma; ref. A0170, dilution to 1:50 000). Visualization was carried out with the TMB-H₂O₂ substrate (Interchim; ref UP664780) and the measurements were carried out with a plate reader at 450 nm. Similarly, the Robo1-Fc Slit2-minus variant, which is mutated at the level of the Slit2-binding site, was evaluated according to a concentration range (from 20 μg/mL to 0.02 μg/mL) by ELISA assay under the same conditions described above.

Slit2-D2 [1] = biological target: T3, Slit2-D2 (human); test: SPR (BIAcore 2000), Robo1-Fc on CM5 chip, steady-state analysis
T3 construct: Used purified (ELISA, SPR) and expressed by transient transfection of pXL4911 in HEK293 cells (FACS); also called human Slit2-D2 protein; D2 domain of human Slit2
T3 chain: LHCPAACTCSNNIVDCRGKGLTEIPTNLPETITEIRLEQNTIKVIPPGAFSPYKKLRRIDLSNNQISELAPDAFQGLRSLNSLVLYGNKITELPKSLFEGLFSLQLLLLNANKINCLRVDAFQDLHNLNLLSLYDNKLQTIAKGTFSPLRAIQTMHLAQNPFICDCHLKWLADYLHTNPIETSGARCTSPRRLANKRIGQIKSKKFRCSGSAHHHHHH
Procedure: This example describes the determination of the affinity constant of the Robo 1-Fc L1 fusion protein with the human Slit2 protein (in this experiment, Slit2-D2) by SPR (Surface Plasmon Resonance; BIAcore 2000). The interaction between the Robo1-Fc protein and the human Slit2 protein was analysed after having bound the Robo1-Fc fusion protein to a CM5 chip. The kinetic measurements were carried out according to the protocol of Canziani et al. (2004. Anal, Biochem. 325: 301-307).

Slit2-D2 [2] = biological target: T3, Slit2-D2; test: SPR, Slit2-D2 on CM5 chip, two-phase Scatchard model, low-affinity site
Procedure: A second method, which consists in determining the affinity constant between the Robo1-Fc L1 fusion protein and the human Slit2 protein, was analysed after having bound the Slit2-D2 protein to the CM5 chip. The kinetic measurements are carried out according to the protocol of Canziani eta((2004. Anal. Biochem. 325: 301-307) using the Scatchard method according to a model with two non-equivalent binding sites, […]

B1: Robo1-Fc L1 (Fc fusion)
chain: SRLRQEDFPPRIVEHPSDLIVSKGEPATLNCKAEGRPTPTIEWYKGGERVETDKDDPRSHRMLLPSGSLFFLRIVHGRKSRPDEGVYVCVARNYLGEAVSHNASLEVAILRDDFRQNPSDVMVAVGEPAVMECQPPRGHPEPTISWKKDGSPLDDKDERITIRGGKLMITYTRKSDAGKYVCVGTNMVGERESEVAELTVLERPSFV[here human IgG4 Fc with changes without letters]
notes: also called Robo-Fc L1; Robo1-Fc L1 biotherapeutic agent
**Q.** How did the Kd (Slit2-N) turn out when B1 was run?
**A.** Its Kd is 1.2 nM.

**Q.** What about the EC50 (Slit1-D2) of the same binder?
**A.** Its EC50 is 0.0788 µg/mL.

**Q.** And the Kd (Slit2-D2 [1])?
**A.** Its Kd is 32 nM.

**Q.** And the Kd (Slit2-D2 [2])?
**A.** The Kd was 160 nM.
